Eleven variants from the supplement of paper PMC12217912 can be followed below.

The other results are listed elsewhere or left out. Sequences were assembled here from the parent chain. Inactive controls read about 0.05.

B1: TEV protease; numbered along this chain (parent)
chain: MGESLFKGPRDYNPISSSICHLTNESDGHTTSLYGIGFGPFIITNKHLFRRNNGTLVVQSLHGVFKVKDTTTLQQHLVDGRDMIIIRMPKDFPPFPQKLKFREPQREERICLVTTNFQTKSMSSMVSDTSCTFPSGDGIFWKHWIQTKDGQCGSPLVSTRDGFIVGIHSASNFTNTNNYFTSVPKNFMELLTNQEAQQWVSGWRLNADSVLWGGHKVFMVKPEEPFQPVKEATQL
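Note: Bxb1 expression induced with 0.2% (w/v) L-rhamnose at OD600 near 0.5, cultures sampled hourly, flipped fraction per protease–substrate barcode pair counted by paired-end Illumina sequencing.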

In this assay the parent is B1. The experiment in a line: raw area under fraction-flipped curve 0-4 h after induction (AUC4h, not background-subtracted), DNA-recorder readout of cleavage of the substrate (dimensionless); higher = more cleavage of the substrate by the protease variant. Conditions: temperature: 34 °C; time window: 0-4 h after rhamnose induction.
Turning to MGESLFKGPRDYNPISSSICHLTNESDGHTTSLYGIGFGPFIITNKHLFRRNNGTLVVQSLHGVFKVKDTTTLQQHLVDGRDMIIIRMPKDFPPFPQKLKFREPQREERICLVTTNFQTKSMSSMVSDTSCTFPSGDGIFWKHWIQTKDGQCGSPLVSTRDGFIVGIHSASNFTNTNNYFTSVPKNFMELLTNQEAQQWVSGWRLPADSVLWGGHKVFMVKPEEPFQPVKEATQL [N206P], the “area with substrate KNLYFQS” value was 0.0447 and the “area with substrate YNLYFQS” value turned out to be 0.0482.
MGESLFKGPRDYNPISSSICHLTNESDGHTTSLYGIGFGPFIITNKHLFRRNNGTLVVQSLHGVFKVKDTTTLQQHLVDGRDMIIIRMPKDFPPFPQKLKHREPQREERICLVTTNFQTKSMSSMVSDTSCTFPSGDGIFWKHWIQTKDGQCGSPLVSTRDGFIVGIHSASNFTNTNNYFTSVPKNFMELLTNQEAQQWVSGWRLNADSVLWGGHKVFMVKPEEPFQPVKEATQL [F101H]: the “area with substrate KNLYFQS” value was 0.0569, the “area with substrate LNLYFQS” value was 0.0421, the “area with substrate TNLYFQS” value stood at 0.0486 and the “area with substrate YNLYFQS” value was determined as 0.047.
Regarding MGESLFKGPRDYNPISSSICHLTNESDGHTTSLYGIGFGPFIITNKHLFRRNNGTLVVQSLHGVFKVKDTTTLQQHLVDGRDMIIIRMPKDFPPFPQKLKEREPQREERICLVTTNFQTKSMSSMVSDTSCTFPSGDGIFWKHWIQTKDGQCGSPLVSTRDGFIVGIHSASNFTNTNNYFTSVPKNFMELLTNQEAQQWVSGWRLNADSVLWGGHKVFMVKPEEPFQPVKEATQL [F101E], the “area with substrate INLYFQS” value is 0.0507, the “area with substrate KNLYFQS” value turned out to be 0.0546, the “area with substrate LNLYFQS” value was found to be 0.0954 and the “area with substrate TNLYFQS” value is 0.048. The “area with substrate YNLYFQS” value turned out to be 0.0467.
Consider MGESLFKGPRDYNPISSSICHLTNESDGHTTSLYGIGFGPFIITNKHLFRRNNGTLVVQSLHGVFKVKDTTTLQQHLVDGRDMIIIRMPKDFPPFPQKLKFREPQREERICLVTTNFQTKSMSSMVSDTSCTFPSGDGIFWKHWIQTKDGQCGSPLVSTRDGFIVGIHSASNFTNTNNYFTSVPKNFMELLTNQEAQQWVSGWRLNADSVLWGGHKVFMVKPEEPFQPVKEATQY [L235Y], for which the “area with substrate KNLYFQS” value was determined as 0.0761, the “area with substrate NNLYFQS” value was determined as 0.0702, the “area with substrate TNLYFQS” value was determined as 0.12 and the “area with substrate VNLYFQS” value was determined as 0.0409.
Regarding MGESLFKGPRDYNPISSSICHLTNESDGHTTSLYGIGFGPFIITNKHLFRRNNGTLVVQSLHGVFKVKDTTTLQQHLVDGRDMIIIRMPKDFPPFPQKLKFREPQREERICLVTTNFQTKSMSSMVSDTSCTFPSGDGIFWKHWIQTKDGQCGSPLVSTRDGFIVGIHSFSNFTNTNNYFTSVPKNFMELLTNQEAQQWVSGWRLNADSVLWGGHKVFMVKPEEPFQPVKEATQL [A170F], the “area with substrate KNLYFQS” value was determined as 0.0592.
MGESLFKGPRDYNPISSSICHLTNESDGHTTSLYGIGFGPFIITNKHLFRRNNGTLVVQSLHGVFKVKDTTTLQQHLVDGRDMIIIRMPKDFPPFPQKLKFREPQREERICLVTTNFQTKSMSGMVSDTSCTFPSGDGIFWKHWIQTKDGQCGSPLVSTRDGFIVGIHSASNFTNTNNYFTSVPKNFMELLTNQEAQQWVSGWRLNADSVLWGGHKVFMVKPEEPFQPVKEATQL [S124G]: the “area with substrate INLYFQS” value was determined as 0.0569, the “area with substrate NNLYFQS” value worked out at 0.0607 and the “area with substrate SNLYFQS” value was 0.0664.
For MGESLFKGPRDYNPISSSICHLTNESDGHTTSLYGIGFGPFIITNKHLFRRNNGTLVVQSLHGVVKVKDTTTLQQHLVDGRDMIIIRMPKDFPPFPQKLKFREPQREERICLVTTNFQTKSMSSMVSDTSCTFPSGDGIFWKHWIQTKDGQCGSPLVSTRDGFIVGIHSASNFTNTNNYFTSVPKNFMELLTNQEAQQWVSGWRLNADSVLWGGHKVFMVKPEEPFQPVKEATQL [F65V], the “area with substrate KNLYFQS” value is 0.0389, the “area with substrate MNLYFQS” value turned out to be 0.0582, the “area with substrate QNLYFQS” value was 0.0767 and the “area with substrate SNLYFQS” value was found to be 0.0693.
Turning to MGESLFKGPRDYNPISSSICHLTNESDGHTTSLYGIGFGPFIITNKHLFRRNNGTLVVQSLHGVFKVKDTTTLQQHLVDGRDMIIIRMPKDFPPFPQKLKFREPQREERICLVTTNFQTKSMSSMVSDTSCTFPSGDGIFWKHWIQSKDGQCGSPLVSTRDGFIVGIHSASNFTNTNNYFTSVPKNFMELLTNQEAQQWVSGWRLNADSVLWGGHKVFMVKPEEPFQPVKEATQL [T147S], the “area with substrate INLYFQS” value came out at 0.0561, the “area with substrate LNLYFQS” value was found to be 0.0648, the “area with substrate RNLYFQS” value was determined as 0.0722 and the “area with substrate VNLYFQS” value worked out at 0.0448.
As for MGESLFKGPRDYNPISSSICHLTNESDGHTTSLYGIGFGPFIITNKHLFRRNNGTLVVQSLHGVFKVKDTTTLQQHLVDGRDMIIIRMPKDFPPFPQKLKFREPQREERICLVTTNFQTKSMSSMVSDTSCTFPSGDGIFWKHWIQTKDGQCGSPLVSTRDGFIVGIHSASNFTNTNNYFTSVPKNFMELLTNQEAQQWVSGWRLNADRVLWGGHKVFMVKPEEPFQPVKEATQL [S209R], the “area with substrate INLYFQS” value amounted to 0.0508, the “area with substrate NNLYFQS” value came to 0.0602, the “area with substrate PNLYFQS” value was determined as 0.0785 and the “area with substrate TNLYFQS” value came out at 0.0608. Besides, the “area with substrate YNLYFQS” value came out at 0.0471.
MGESLFKGPRDYNPISSSICHLTNESDGHTTSLYGIGFGPFIITNKHLFRRNNGTLVVQSLHGVFKVKDTTTLQQHLVDGRDMIIIRMPKDFPPFPQKIKFREPQREERICLVTTNFQTKSMSSMVSDTSCTFPSGDGIFWKHWIQTKDGQCGSPLVSTRDGFIVGIHSASNFTNTNNYFTSVPKNFMELLTNQEAQQWVSGWRLNADSVLWGGHKVFMVKPEEPFQPVKEATQL [L99I]: the “area with substrate INLYFQS” value was 0.0584, the “area with substrate KNLYFQS” value came out at 0.0741, the “area with substrate PNLYFQS” value came to 0.067 and the “area with substrate SNLYFQS” value worked out at 0.0745. Besides, the “area with substrate YNLYFQS” value is 0.0454.
MGESLFKGPRDYNPISSSICHLTNESDGHTTSLYGIGFGPFIITNKHLFRRNNGTLVVQSLHGVFKVKDTTTLQQHLVDGRDMIIIRMPKDFPPFPQKLKFREPQREERICLVTTTFQTKSMSSMVSDTSCTFPSGDGIFWKHWIQTKDGQCGSPLVSTRDGFIVGIHSASNFTNTNNYFTSVPKNFMELLTNQEAQQWVSGWRLNADSVLWGGHKVFMVKPEEPFQPVKEATQL [N116T]: the “area with substrate KNLYFQS” value is 0.0647, the “area with substrate QNLYFQS” value amounted to 0.0724 and the “area with substrate WNLYFQS” value was 0.0413.
